The IC50 comes from the fitted curve, where viability falls to half of the control; where the fit passes the top or lowest dose, that dose stands as a limit. AUC, from the same fit, is the share of area under the viability curve across the 256-fold dose range: 1 means no effect, lower means more sensitive. For part of these data: Where the top dose is marked as inferred, it was derived from the fitted curves, not read from the paper. For part of these data: Drugs with an entry number were screened twice under separate entries, and the two screens often disagree.
Columns and labels:
Assay in all cases: Viability of human cancer cell lines after 72 h of drug (GDSC screen)
ZM-447439 = compound: COc1cc2c(Nc3ccc(NC(=O)c4ccccc4)cc3)ncnc2cc1OCCCN1CCOCC1 [ZM-447439]; conditions: top dose inferred
Procedure: (§1)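 Human cancer cell lines in 384-well plates, medium with 10% serum, drug for 72 h over a 256-fold dose range (nine 2-fold or five 4-fold steps up to the top dose). Adherent lines were fixed and stained with the nucleic acid dye Syto60, suspension lines read with resazurin; signal relative to control wells, capped at 0 and 100%. One two-parameter sigmoid per drug and line, fitted in a mixed model over all curves with the slope shared within a line.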

PD-0332991 = compound: CC(=O)c1c(C)c2cnc(Nc3ccc(N4CCNCC4)cn3)nc2n(C2CCCC2)c1=O [PD-0332991]
Procedure: as §1

AZD6244 = compound: Cn1cnc2c(F)c(Nc3ccc(Br)cc3Cl)c(C(=O)NOCCO)cc21 [AZD6244]; conditions: screen: GDSC drug entry 1062
Procedure: as §1

Cell Line	AUC (ZM-447439)	IC50 (ZM-447439)	AUC (PD-0332991)	IC50 (PD-0332991)	AUC (AZD6244)	IC50 (AZD6244)
HARA (lung squamous cell carcinoma, adherent, top dose 4 µM)	0.876	> 4 µM	0.696	0.98 µM	0.973	> 4 µM
HC-1 (hairy cell leukaemia, suspension, top dose 4 µM)	0.959	> 4 µM	0.909	> 4 µM	0.974	> 4 µM
HCC38 (breast, adherent, top dose 4 µM)	0.965	> 4 µM	0.968	> 4 µM	0.985	> 4 µM
HCC202 (breast, adherent, top dose 4 µM)	0.981	> 4 µM	0.981	> 4 µM	0.98	> 4 µM
HCC1143 (breast, adherent, top dose 4 µM)	0.894	> 4 µM	0.748	1.76 µM	0.969	> 4 µM
HCC1187 (breast, suspension, top dose 4 µM)	0.826	2.26 µM	0.977	> 4 µM	0.961	> 4 µM
HCC1395 (breast, adherent, top dose 4 µM)	0.946	> 4 µM	0.908	> 4 µM	0.973	> 4 µM
HCC1419 (breast, adherent, top dose 4 µM)	0.95	> 4 µM	0.973	> 4 µM	0.921	> 4 µM
HCC1428 (breast, adherent, top dose 4 µM)	0.986	> 4 µM	0.918	> 4 µM	0.98	> 4 µM
HCC1569 (breast, adherent, top dose 4 µM)	0.945	> 4 µM	0.971	> 4 µM	0.968	> 4 µM
HCC1937 (breast, adherent, top dose 4 µM)	0.981	> 4 µM	0.97	> 4 µM	0.981	> 4 µM
HCC1954 (breast, adherent, top dose 4 µM)	0.932	> 4 µM	0.943	> 4 µM	0.901	> 4 µM
HCC2157 (breast, suspension, top dose 4 µM)	0.832	2.74 µM	0.986	> 4 µM	0.975	> 4 µM
HCC2218 (breast, suspension, top dose 4 µM)	0.982	> 4 µM	0.983	> 4 µM	0.979	> 4 µM
HCC-15 (lung squamous cell carcinoma, adherent, top dose 4 µM)	0.874	> 4 µM	0.938	> 4 µM	0.967	> 4 µM
HCC-44 (lung adenocarcinoma, adherent, top dose 2 µM)	0.907	> 2 µM	0.981	> 2 µM	0.794	0.897 µM
HCC-56 (large intestine, adherent, top dose 4 µM)	0.918	> 4 µM	0.968	> 4 µM	0.524	0.292 µM
HCC-78 (lung adenocarcinoma, adherent, top dose 4 µM)	0.904	> 4 µM	0.781	1.97 µM	0.884	> 4 µM
HCC-827 (lung adenocarcinoma, adherent, top dose 4 µM)	0.931	> 4 µM	0.853	3.91 µM	0.906	> 4 µM
HCT-15 (large intestine, adherent, top dose 4 µM)	0.961	> 4 µM	0.854	3.47 µM	0.987	> 4 µM
HDLM-2 (Hodgkin lymphoma, suspension, top dose 4 µM)	0.857	3.17 µM	0.912	> 4 µM	0.987	> 4 µM
HDQ-P1 (breast, adherent, top dose 4 µM)	0.954	> 4 µM	0.983	> 4 µM	0.85	3.96 µM

Cell Line	AUC (ZM-447439)	IC50 (ZM-447439)	AUC (PD-0332991)	IC50 (PD-0332991)	AUC (AZD6244)	IC50 (AZD6244)
HEC-1 (endometrium, adherent, top dose 4 µM)	0.896	> 4 µM	0.925	> 4 µM	0.982	> 4 µM
HGC-27 (stomach, adherent, top dose 4 µM)	0.817	1.82 µM	0.621	0.509 µM	0.975	> 4 µM
HH (T-cell leukaemia, suspension, top dose 4 µM)	0.916	> 4 µM	0.676	0.916 µM	0.95	> 4 µM
HL-60 (acute myeloid leukaemia, suspension, top dose 4 µM)	0.836	2.28 µM	0.772	1.39 µM	0.898	> 4 µM
HLE (liver, adherent, top dose 2 µM)	0.915	> 2 µM	0.929	> 2 µM	0.953	> 2 µM
HN (head and neck, adherent, top dose 4 µM)	0.798	1.77 µM	0.741	1.16 µM	0.663	0.688 µM
HO-1-u-1 (head and neck, adherent, top dose 4 µM)	0.98	> 4 µM	0.945	> 4 µM	0.988	> 4 µM
HOP-62 (lung adenocarcinoma, adherent, top dose 4 µM)	0.959	> 4 µM	0.88	> 4 µM	0.982	> 4 µM
HOS (osteosarcoma, adherent, top dose 4 µM)	0.902	3.71 µM	0.749	1.12 µM	0.959	> 4 µM
HSC-2 (head and neck, adherent, top dose 4 µM)	0.967	> 4 µM	0.909	> 4 µM	0.947	> 4 µM
HSC-39 (stomach, suspension, top dose 4 µM)	0.811	1.77 µM	0.85	2.42 µM	0.985	> 4 µM
HT (B-cell lymphoma, suspension, top dose 4 µM)	0.948	> 4 µM	0.973	> 4 µM	0.984	> 4 µM
HT-3 (cervix, adherent, top dose 4 µM)	0.984	> 4 µM	0.987	> 4 µM	0.987	> 4 µM
HT-29 (large intestine, adherent, top dose 4 µM)	0.944	> 4 µM	0.742	1.23 µM	0.982	> 4 µM
HT-115 (large intestine, adherent, top dose 4 µM)	0.944	> 4 µM	0.946	> 4 µM	0.991	> 4 µM
HT-144 (melanoma, adherent, top dose 4 µM)	0.918	> 4 µM	0.836	3.1 µM	0.389	0.119 µM
HT-1080 (fibrosarcoma, adherent, top dose 4 µM)	0.876	3.26 µM	0.753	1.21 µM	0.788	1.55 µM
HT-1197 (bladder, adherent, top dose 4 µM)	0.985	> 4 µM	0.98	> 4 µM	0.956	> 4 µM
HT-1376 (bladder, adherent, top dose 4 µM)	0.966	> 4 µM	0.97	> 4 µM	0.915	> 4 µM
Hey (ovary, adherent, top dose 4 µM)	0.857	2.95 µM	0.585	0.42 µM	0.716	0.979 µM
Hs633T (fibrosarcoma, adherent, top dose 4 µM)	0.849	2.21 µM	0.726	0.948 µM	0.648	0.59 µM
Hs683 (glioma, adherent, top dose 4 µM)	0.929	> 4 µM	0.887	> 4 µM	0.98	> 4 µM

Cell Line	AUC (ZM-447439)	IC50 (ZM-447439)	AUC (PD-0332991)	IC50 (PD-0332991)	AUC (AZD6244)	IC50 (AZD6244)
Hs746T (stomach, adherent, top dose 4 µM)	0.971	> 4 µM	0.802	2.83 µM	0.872	> 4 µM
Hs766T (pancreas, adherent, top dose 4 µM)	0.979	> 4 µM	0.855	> 4 µM	0.942	> 4 µM
Hs939-T (melanoma, adherent, top dose 4 µM)	0.962	> 4 µM	0.879	> 4 µM	0.965	> 4 µM
HuCCT1 (biliary tract, adherent, top dose 4 µM)	0.928	> 4 µM	0.88	> 4 µM	0.718	1.12 µM
HuH-7 (liver, adherent, top dose 4 µM)	0.956	> 4 µM	0.865	3.53 µM	0.941	> 4 µM
HuO9 (osteosarcoma, adherent, top dose 4 µM)	0.949	> 4 µM	0.939	> 4 µM	0.912	> 4 µM
HuO-3N1 (osteosarcoma, adherent, top dose 4 µM)	0.961	> 4 µM	0.983	> 4 µM	0.978	> 4 µM
HuP-T3 (pancreas, adherent, top dose 4 µM)	0.915	> 4 µM	0.796	2.37 µM	0.963	> 4 µM
HuP-T4 (pancreas, adherent, top dose 4 µM)	0.845	3.16 µM	0.81	2.26 µM	0.962	> 4 µM
IGR-1 (melanoma, adherent, top dose 4 µM)	0.978	> 4 µM	0.914	> 4 µM	0.897	3.89 µM
IGROV-1 (ovary, adherent, top dose 4 µM)	0.918	> 4 µM	0.792	2.86 µM	0.873	> 4 µM
IHH-4 (thyroid, semi-adherent, top dose 4 µM)	0.778	1.3 µM	0.736	0.997 µM	0.569	0.371 µM
IM-9 (myeloma, suspension, top dose 4 µM)	0.974	> 4 µM	0.992	> 4 µM	0.991	> 4 µM
IMR-5 (neuroblastoma, adherent, top dose 4 µM)	0.912	> 4 µM	0.992	> 4 µM	0.976	> 4 µM
IPC-298 (melanoma, adherent, top dose 4 µM)	0.98	> 4 µM	0.894	> 4 µM	0.371	0.111 µM
IST-MEL1 (melanoma, adherent, top dose 4 µM)	0.921	> 4 µM	0.817	2.81 µM	0.868	> 4 µM
IST-SL1 (small cell lung carcinoma, semi-adherent, top dose 4 µM)	0.775	1.63 µM	0.986	> 4 µM	0.981	> 4 µM
IST-SL2 (small cell lung carcinoma, suspension, top dose 4 µM)	0.942	> 4 µM	0.988	> 4 µM	0.978	> 4 µM
JAR (urogenital system, adherent, top dose 4 µM)	0.902	> 4 µM	0.987	> 4 µM	0.97	> 4 µM
JEG-3 (urogenital system, adherent, top dose 4 µM)	0.914	> 4 µM	0.972	> 4 µM	0.979	> 4 µM
JEKO-1 (B-cell lymphoma, suspension, top dose 4 µM)	0.741	1.18 µM	0.738	1.15 µM	0.941	> 4 µM

— the supplement of paper PMC4967469
